In the supplement of paper PMC10681739:
± gives the standard deviation of the averaged measurements. The full ranking holds about 4,100 sequences; the median of “arbitrary fluorescence units” is about 780, and the highest 2% start at about 22,000. This is one part of the list.

Each sequence was assayed against T1, ETS1 (UniProt P14921) (assay: ETS1 binding intensity (PBM fluorescence), ETS1 alone (arbitrary fluorescence units); higher = stronger binding). Conditions: ETS1 concentration 1 nM; RUNX1 concentration 0 nM.
T1 sequence: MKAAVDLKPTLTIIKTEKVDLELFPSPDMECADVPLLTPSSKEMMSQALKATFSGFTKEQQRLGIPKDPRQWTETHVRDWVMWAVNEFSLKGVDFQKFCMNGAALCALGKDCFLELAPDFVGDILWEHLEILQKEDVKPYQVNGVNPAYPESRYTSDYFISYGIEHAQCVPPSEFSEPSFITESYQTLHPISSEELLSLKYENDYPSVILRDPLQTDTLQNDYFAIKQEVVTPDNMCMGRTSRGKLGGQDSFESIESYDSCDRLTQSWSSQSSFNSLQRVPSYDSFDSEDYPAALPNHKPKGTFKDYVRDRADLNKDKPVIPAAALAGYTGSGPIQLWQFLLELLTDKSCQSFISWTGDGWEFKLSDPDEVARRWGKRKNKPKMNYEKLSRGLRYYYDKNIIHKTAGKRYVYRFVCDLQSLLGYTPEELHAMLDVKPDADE
How it was run: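 Full-length recombinant human ETS1 (1 nM, no RUNX1) was incubated, per standard PBM protocols, on double-stranded Agilent 4 × 180k arrays of 36-bp genomic probes whose RUNX1 partner site was mutated. Bound ETS1 was detected with anti-ETS1 antibody (Cell Signaling Technology 14069) and Alexa488-conjugated secondary antibody, then scanned on a GenePix 4400A. Binding level is spot fluorescence intensity, summarised over replicate spots (four printed per sequence) and not normalised.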

| Sequence | ETS1 binding intensity |
| --- | --- |
| TGATGCAGGAAGGGGTGGAGTCACCTCAGGAGGTAG | 525 |
| GAGGAGATTTCCGGCCCCCATCCCCTCAGCGACCTT | 15100 |
| GGCAGGAGCTTCCGGCTCAGCCCTTCGGCCTGTGCC | 8290 |
| TCAGCTGCGCGATGAGTCAGTGCGAGCAGGAAGCAC | 410 |
| AGCACCCGGAAGTCGGAGCTGCGCACGCACCGAGGG | 7420 |
| CAGGCAGGATGTTGACTCAGCTGCCAAGTGGATTTG | 4000 |
| AAGTTCGCAGCCGCCAAGAGGGGAAACGGGCTGCGC | 324 |
| TCTTCGGCCTCCTCCACCCCCACACTTCCTCTCTGC | 647 |
| CTCATCCACGCACGACTCTGCTCCGTTCCGTTCCGA | 529 |
| CAGCAAGCAACCCCAAAACCAGAGCGGAAGGAGGGA | 770 |
| TGAAGGAGCGGAAGGGTTGCTTGCAGACTGCACGGT | 578 |
| ATAAGAATGTAGTTTCCAAAGTTCCGGTTCCTCTTG | 1510 |
| TGGGCGCGCTGAGGGAGCTGGGCTTCCCGTACATGA | 325 |
| TTACTGCCGGAACTTGGGACCTTTGTAAGCACGTCT | 1000 |
| GTGTCTCTGGTGTCGGCGCTGCAGGATGACGCGAGC | 531 |
| GGTTTGGTGCTTTGGTGGCAGCAGGAAGGTAAGGGA | 433 |
| CAGTCTGGCCATGAGGTGCCACTTCCTCTCTGGTTT | 1550 |
| AGCAACCTACTACCCGGCGCCTGATTCACTTCCCTC | 391 |
| CGGGACAGCGGGCGGACTCAGCCCAGGAAGCGGCAG | 373 |
| TGCCTCTTCCTGTGGCTGGGCTGTATCTGACAACAC | 5870 |
| CTAGCAGGAAACAGACAGACCCAGCCAGAGAATCTC | 1600 |
| GAGGGGAGGATGTCTGAGCTTTTAATTGTAGTTTCA | 588 |
| CAGGCCTGTGATTTCCTCTGAGTGGATTTCTTGGCC | 1320 |
| CCTGCGGATCACGGAAGTGGCTGCAGTCGGCGCCAT | 1560 |
| CCGCCGACACACTTCCGGCGGCCACCAGAGGGTATT | 21200 |

| Sequence | ETS1 binding intensity |
| --- | --- |
| TGAGGGACTTTCGGGCTCGGTCCTTCCTGAGAGGTG | 404 |
| CCCCTCACTTCCCTCAACCCTTCCCATAAACTGGGA | 1620 |
| CAGTGACATCCTATATTAATTTAAGGTCACTGCTTA | 2460 |
| ACCAGAACAGGAAATGTTAGTGCTTGAGTTAACGGT | 4300 |
| CCTGCCGAGGAAGTCCCACGTCACTGCGCTTAGAGT | 487 |
| CAGGCCTTTCCTGCTATCGTTTGGGGTTTGAGCAGT | 1970 |
| CCCTCAGCGGCCTCCACAGAGCAGGAAGCAGCCCTC | 647 |
| TTGGGGTTTGTCAGCCCCAGACAGGCAGGAAACGCT | 599 |
| CGAGCTGCAGTTTTACGCAGACACACTTCCGGCGCT | 3050 |
| AAGCCATTTTACGGCTAAAGCCTTTCCGCCCTTAAA | 441 |
| CAGTGTTCCGCGTCCGGGGGTTTATGGGAGTTGCCT | 1440 |
| CTAGCTCCGCCCCGCGAGAAGGACTTCCGCGTCCTC | 847 |
| CTTGCTTAACGCTTCCTGAGGGGTGGCTTGGGTTTT | 1360 |
| GCACCCTTCCTGCTTCCCACAGTGTCGTATAAGAGG | 4320 |
| AACAACTGACCGGACAGAACACAGCCCCAAAACACG | 436.4 ± 1.1 |
| AGGCTGTTGTGAGTTGCGCCGCTTCGGATGTGGGAG | 364 |
| TTCGCCCTTCCCTTCCTATGAAAAGCACTTTCCTTC | 565 |
| CGACCTTACGGGGCGGTGCAAGCTGGCGGAACCCGA | 374 |
| ACATGAGGAAGGGGTAAGTGGATTTCCCTACCCCAA | 390 |
| CTGCCTTTCCTGCTAGGGTACAAATCACAGCCTTAG | 1670 |
| CCGCTTTTTGTAGGCCGGGTGGGTTTCCTAATCTGG | 480 |
| ATACAGCGGCACTGGGTTGGGGTTTCCTGGATGAAC | 517 |
| TGTCTCATTTCCTGTAGGTAACAGGCACCAAAATAG | 26500 |
| TTTTTCTTGTGACTTCTTCAGCCACATCCTGACCAA | 601 |
| TACACACCAAAAACTCCTCACAGCCTCACTTCCTGT | 2020 |

| Sequence | ETS1 binding intensity |
| --- | --- |
| TGCAGACTACGGCGGAGGTGGTCTGAGGAAGTTCTA | 428 |
| GCGATGTTTCCGAGGCAACGCGCTGGTGTGAGTTAG | 533 |
| TGTAATTTGGGGTTAGCACAACACAGGAAGTCCTGC | 1150 |
| AACCAGAATAACGACAGATCAAGCCGGAAGCACATG | 1490 |
| AATGCCGGATATTGGTTCTGGTAAGTCACAAAAAAG | 5550 |
| GGGCTATTGTTTCCTCCCCCATGTGACAACAGCCTC | 1050 |
| TGTCTCTCACCCCAAAATCCACTTCCTATGATGTTT | 1040 ± 190 |
| TGGCGGCGGATACTGCCCATGGCGCGAGGCCGTAAG | 480 |
| TTCAACAGGATATTGCTTTGTTATCACAGGCCCTTT | 2310 |
| CTACGCCAGAGAGCGGGGCGGGAGCGGAAGCGACTC | 1050 |
| CCACACGGAAGGGAGTCGTGTCGTGCTTTACCCCGG | 377 |
| AGCGGATTCCGGACATAACAATCTACAGCGGGCTTA | 873 ± 82 |
| ACTTACTTCCCGACGTCACAGCCACCGAAACTACAG | 1920 |
| TACCGCTGCTTCCTGCCTGCGCGTTGAGCCTGTGCC | 9370 |
| ACAGCGCCTCTTCCTGCTCTACCTCATCTGATGTCC | 2790 |
| TGCGAGCACCCGGAAGCCGCTTGGGGGCTCCCGGAG | 2280 |
| TGCCTTCTACTCCGGAACTCAGACCCCTGCCTTCTA | 660 |
| AGGCGCGGATGGTGTCGCAAAGACCAGCAGCGCTAC | 315 |
| TATCAGCTTCCGACGTGCCCCTCGGTATCTGGACTA | 1600 |
| TTTAAGGTTCATGCTGTACTCAGAACATCCTGTTCT | 1150 |
| GGGGCGATTACAGAACGGGTAACTCAGGATGATTCA | 541 |
| ACTTTCGCGACGCAGGAAGCGCCCACGAAGGGAGGA | 1080 |
| GCGTGGGGCCGAAGAGCGAGTCGGGAAACGATTTTA | 408 |
| GAAGGAAAGTGCTTTTCATAGGAAGGGAAGGGCGAA | 350 |
| GCGCTCCGGGGATTAGGAGGGCGCTTCCGGTGGCGG | 7160 |

| Sequence | ETS1 binding intensity |
| --- | --- |
| TACAGTCTCTGTGATTTACTGAGAGGAAGTGGTTCT | 449 |
| GTTTGAAGGGAAGTGGGTGTTGACCTTCGGGCAACT | 832 |
| CGGCAGTAGGTTGGAGGTGTGGCGGAAATGGTTGGG | 590 |
| TCCCGTTCCAGAGCGGAGCCGGATGTTTGCCGAGCC | 1700 |
| CTGTCCAGCCCAGAGAGGCCCCGGAAAGCCAGTGCC | 354 |
| GAAACTTAGTCTCTGGGGAGAAGGATGTATCTTTGC | 343 |
| CATGAATCCCCTCACACAACAGGAAGGGGGTGTGGC | 696 |
| CTCCTGCTCACAGAAGCTCACTGTTTCCTGTCTAGC | 2690 |
| AGACGTGCTTACAAAGGTCCCAAGTTCCGGCAGTAA | 542 |
| GAAGAGAAAGGAAACGGCTCGCGATTTCTGGGGTTC | 703 |
| TGTCCGGGCAGGAAGGGGTGCTCTCTGGGCTTGGAG | 940 |
| GTCCCACCTCAGGCCTCCAGCCACATCCTGGGCCTC | 631 |
| GATGGTGCTTTTGGCAGAGGCCACATCCTGTCTGTT | 3240 |
| GTGATGGAGGTTCCCAGATCATTTCCTGCTCTTAGC | 2600 |
| GAGGGAAGTGAATCAGGCGCCGGGTAGTAGGTTGCT | 374 |
| CGGAGAGCTCGCGGCAATTCCGTTTCCCCGCCCTTT | 404 |
| GTCGTCCCGGAAACCGGGATGCCGTTATCAGAGCGA | 2750 |
| CTTCTACTTCCTGCCCCGCCCCCAGCTGTGCTCACA | 17900 |
| ACGGACAGAATTTCCTCCCCCGTCACCAGAGCGACC | 1470 |
| TTGGTCTTGGGGTTTTGCAAGGAAGGGGTGATATAT | 517 |
| CGGCCGGACAGCGGCTCCATCCGGGGAACCCGTAGC | 843 |
| GCTCGCGCTTCCTGGGAGCCTTTGATGTGAGTTCTT | 2740 |
| CTTCGGCCTTCCGTGATGGAATCCACCTCCTCTACA | 655 |
| CATGTCGTTATCTCATCGTTTTAAAGGATGTGGGGA | 481 |
| TTGGGTTCCTGCCAACGCTCTCCAGCCACTGCGTAA | 762 |

| Sequence | ETS1 binding intensity |
| --- | --- |
| CTCTCACTTCCCGTGTGAGAAAAATCACAGAAAAGC | 8110 |
| CCCAGAGATGAGGTGCATGTGGCAGGATGGCCCAGC | 413 |
| ACCGTGCAGTCTGCAAGCAACCCTTCCGCTCCTTCA | 606 |
| GAAACAATTTCCTGTACCTCTGTCGTAAAAATGATA | 11000 |
| CTGTTCTCATCCGCCCGCTCTGAGTCACCTACACCT | 1420 |
| CCACTTAGTGGCCAGGCCTCTGTCTCTTCCTCCCAT | 303 |
| GTGCATCCACCAGATGGTTCATTCTCAGGATATGGT | 460 |
| TGTGAGCGCATCATGGGTAGACTCACTTCCTCTTGT | 630 |
| AGGTTCCGGCGAAAGTGACCGAAAGTAGCCGCCGGG | 4450 |
| AGACTAGAGGCGGCTGTGTGAGTCAGGAAGAGGGGC | 317 |
| AGGCTGTAGGTGCCCTCGCCTTGCCCTCAGGAAGGG | 333 |
| CTGCACAAGGAAGCGCCTGTGTTGCTGTGAGCGGAG | 399 |
| ACGCCTGGGGTCCCAGCTACTCAGGAAGCTGAGGTG | 358 |
| TACCCAGAAAGGAAGTGGAACCTGAGGTGAGGCCCC | 2070 |
| CAGTCAATGTCGTAAGCTCATTTCCTGGAATGGCAA | 2440 |
| GAGAGCTGAGCGGAAGCTCAGCTGAGGGGCTGGTTG | 1550 |
| GGCTTCCGCCGCCACCACTGCCCCTCACCCGCCACG | 5750 |
| AGCCACGGACTTCCGCCTACAGGTCGCCGCTGGTCC | 9040 ± 2200 |
| AGCGGTATCCTGTTGTCTTACTCTGGTGACGTCATC | 8760 |
| TGACATCCTCTGAGGCAGCAAGCTTCGGTGAAGTCT | 5050 |
| GCCCACTTCCTGCCGTAAGAGAAATCCACTAACACA | 33800 |
| CCAGATTAGGAAACCCACCCGGCCTACAAAAAGCGG | 409 |
| AGGTCTCCGGAAGTGGGTCTTCGGCGCGCGGGATGC | 10200 |
| CAGAGTGGCTTGATGGTTTTGTGTTAGTCTTCCTGC | 552 |
| CAGCGGAAGAAAGACCTGCCACCTCCACCCCAAAGA | 615 |
